From publication PMC4336329 (PLoS ONE, 2015) come the findings set out here.

The structures appear in SMILES notation. Hit rate of the full screen: of about 310,000 compounds, about 2,200 (0.71%) showed an effect of 50% or more. Effects have a minus sign here. This is one part of the list.

For this experiment, the target named is human ether-à-go-go-related gene (hERG) potassium channel (human, UniProt Q12809). Nature of the experiment: primary screen, population patch clamp on CHO cells stably expressing hERG.
human ether-à-go-go-related gene (hERG) potassium channel, sequence (Q12809 whole entry, looked up): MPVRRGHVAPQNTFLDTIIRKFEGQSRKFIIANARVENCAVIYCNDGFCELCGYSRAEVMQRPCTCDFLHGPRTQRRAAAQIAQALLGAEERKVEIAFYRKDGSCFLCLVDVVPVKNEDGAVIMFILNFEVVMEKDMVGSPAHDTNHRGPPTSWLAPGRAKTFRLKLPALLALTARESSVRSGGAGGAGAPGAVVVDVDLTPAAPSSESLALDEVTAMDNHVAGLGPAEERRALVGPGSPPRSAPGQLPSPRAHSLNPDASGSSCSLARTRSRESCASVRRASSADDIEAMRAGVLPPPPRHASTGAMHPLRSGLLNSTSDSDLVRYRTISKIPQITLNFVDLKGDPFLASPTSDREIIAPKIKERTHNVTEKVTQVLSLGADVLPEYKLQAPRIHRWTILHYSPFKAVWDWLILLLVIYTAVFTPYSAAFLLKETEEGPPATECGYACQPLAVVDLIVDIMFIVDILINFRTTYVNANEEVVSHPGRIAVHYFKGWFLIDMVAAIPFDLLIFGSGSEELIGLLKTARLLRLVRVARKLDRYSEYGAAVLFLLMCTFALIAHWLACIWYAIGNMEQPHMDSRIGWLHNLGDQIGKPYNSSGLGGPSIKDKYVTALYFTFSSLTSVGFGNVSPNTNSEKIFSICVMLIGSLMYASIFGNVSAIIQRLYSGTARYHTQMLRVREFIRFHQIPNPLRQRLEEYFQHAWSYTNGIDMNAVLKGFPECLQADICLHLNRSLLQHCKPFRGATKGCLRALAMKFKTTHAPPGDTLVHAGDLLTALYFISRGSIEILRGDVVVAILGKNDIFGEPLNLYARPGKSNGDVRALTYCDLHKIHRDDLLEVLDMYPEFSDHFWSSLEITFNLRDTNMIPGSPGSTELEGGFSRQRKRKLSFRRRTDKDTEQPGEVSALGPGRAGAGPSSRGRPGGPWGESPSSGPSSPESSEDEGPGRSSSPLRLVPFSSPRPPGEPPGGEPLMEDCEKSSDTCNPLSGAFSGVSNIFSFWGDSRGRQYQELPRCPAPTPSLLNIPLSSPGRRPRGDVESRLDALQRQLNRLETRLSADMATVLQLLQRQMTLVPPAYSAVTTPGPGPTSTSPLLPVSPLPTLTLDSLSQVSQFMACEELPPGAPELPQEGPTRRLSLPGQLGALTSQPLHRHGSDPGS
For the molecule `CC(=O)c1ccc(Nc2cc(C)nc3c(C)cc(C)cc23)cc1`, the “hERG current change (%, negative = inhibition) at 1uM” value was -9.86%. Take `O=c1c2c(nc3cc(-c4ccc(Br)cc4)[nH]n13)CCCC2`: the “hERG current change (%, negative = inhibition) at 1uM” value amounted to 6.16%.

As to `CC1=C(C(=O)OC(C)C)C(c2cccc([N+](=O)[O-])c2)n2c(cc(=O)[nH]c2=S)N1` (stereo not shown), the “hERG current change (%, negative = inhibition) at 1uM” value amounted to 10.2%. With `CC(C)n1cc(/C=C2/SC(=O)N(CC(=O)N3CCCC3)C2=O)c2ccccc21` the figure was 11.2%; with `Cc1cccn2cc(CCNS(=O)(=O)c3ccc([N+](=O)[O-])cc3)nc12`, -2.22%; with `CCOC(=O)c1c(N2C(=O)C3C4C=CC(C4)C3C2=O)sc2c1CCC(C)C2` (stereo not shown), 11.9%.

On to `COc1ccc(CCN2C(=S)N(c3ccccc3)C(=O)C2CC(=O)O)cc1OC` (stereo not shown), for which the “hERG current change (%, negative = inhibition) at 1uM” value was determined as 13.4%. On to `CCOC(=O)c1sc(NC(=O)CNCc2ccccn2)c(C(=O)OCC)c1C`, for which the “hERG current change (%, negative = inhibition) at 1uM” value is 11.1%. Under `O=C(Cc1ccccc1[N+](=O)[O-])N1CCN(Cc2ccc3c(c2)OCO3)CC1` stands 9.23%. Regarding `COc1ccc(OC)c(NC(=O)C(C)Oc2ccc(Br)cc2)c1` (stereo not shown), the “hERG current change (%, negative = inhibition) at 1uM” value worked out at 13.8%.

`CCOc1ccccc1NS(=O)(=O)c1cc2c3c(c1)C(C)C(=O)N3CCC2` (stereo not shown): the “hERG current change (%, negative = inhibition) at 1uM” value was determined as 18.4%. With `CNC(=O)CN1C(=O)NC2(CCc3ccccc32)C1=O` (stereo not shown) the figure was 16.1%; with `O=C(CN1C(=O)CSc2ccc(S(=O)(=O)N3CCOCC3)cc21)NCc1cccnc1`, 3.64%; with `CCOC(=O)c1ccc(NC(=O)CSCC(=O)OCC(=O)c2ccccc2)cc1`, 2.26%. Regarding `CN(C)S(=O)(=O)c1cccc(NC(=O)Cc2ccsc2)c1`, the “hERG current change (%, negative = inhibition) at 1uM” value is 9.34%. For the molecule `Fc1ccc(N2CCN(Cc3ccc4c(c3)OCO4)CC2)cc1`, the “hERG current change (%, negative = inhibition) at 1uM” value is -1.69%. On to `Cn1c(SCC(=O)c2ccccc2)nnc1-c1cccnc1`, for which the “hERG current change (%, negative = inhibition) at 1uM” value was found to be 5.4%. As for `O=C(CNC(=O)C1CCCCC1)Nc1ccccc1Cl`, the “hERG current change (%, negative = inhibition) at 1uM” value was determined as 5.14%. With `COC(=O)c1cc(C(=O)OC)n(Cc2ccc(F)cc2)n1` the figure was 0.566%; with `Cc1sc(/N=C/c2ccccc2O)c(C#N)c1C`, 18.5%. For the molecule `Clc1cccc(Cl)c1CN1CCN(c2ccccc2)CC1`, the “hERG current change (%, negative = inhibition) at 1uM” value was 15.9%. With `COc1ccc(N(CC(=O)Nc2nccs2)S(=O)(=O)c2c(C)nn(C)c2C)cc1`, the “hERG current change (%, negative = inhibition) at 1uM” value is -4.42%. With `COC(=O)C(CC(=O)O)NCc1ccco1` (stereo not shown) the figure was 13%. In the case of `O=c1[nH]c(C2CCN(S(=O)(=O)c3ccc4c(c3)OCCO4)CC2)nc2c1nnn2Cc1ccccc1F`, the “hERG current change (%, negative = inhibition) at 1uM” value amounted to 6.14%. With `O=C(NN1CCOCC1)c1cnn2c(C(F)F)cc(-c3ccccc3)nc12` the figure was 9.22%; with `COc1cccc2cc(C(=O)N3CCN(C45CC6CC(CC(C6)C4)C5)CC3)c(=O)oc12`, 10.2%. In the case of `CCOc1ccccc1NC(=O)NC1(C(=O)N2CCOCC2)CCCCC1`, the “hERG current change (%, negative = inhibition) at 1uM” value came out at 15.1%. Turning to `CCc1ccc(NC(=O)c2cccc(NC3=NC4CS(=O)(=O)CC4S3)c2)cc1` (stereo not shown), the “hERG current change (%, negative = inhibition) at 1uM” value is recorded as 15.9%.

Turning to `CC[C@H]1CC2CN3CCc4c([nH]c5ccccc45)C(C(=O)OC)(C2)C13.Cl` (stereo partly shown), the “hERG current change (%, negative = inhibition) at 1uM” value came to 7.18%. `CSc1ccc(/C=N/NC(=O)c2ccc(C)c(C)c2)cc1`: the “hERG current change (%, negative = inhibition) at 1uM” value turned out to be 9.46%. Under `Cc1ccc(C(=O)Nc2c(N)nc(SCC(=O)NCC3CCCO3)[nH]c2=O)cc1` (stereo not shown) stands 17.3%; under `O=C(c1ccco1)N1CCN(S(=O)(=O)c2ccc(Br)s2)CC1`, 6.92%. With `CCOC(=O)C(Cc1ccc(N)cc1)N1C(=O)c2ccccc2C1=O.Cl` (stereo not shown) the figure was 13.9%; with `COc1cc(/C=N/n2c(-c3cc(C)[nH]n3)n[nH]c2=S)ccc1O`, 7.87%. `CCCCc1nnc(NC(=O)Cn2cnc3ccccc3c2=O)s1`: the “hERG current change (%, negative = inhibition) at 1uM” value is recorded as 7.92%. With `Fc1ccc(NC(=S)Nc2cccc3cnccc23)cc1` the figure was 8.6%; with `COc1nc(-c2ccccc2Cl)ccc1C#N`, 9.27%; with `CC1(CC(=O)N/N=C/c2cc([N+](=O)[O-])c(O)cc2O)OCCO1`, 10.3%. Regarding `Cc1cccc(N2CCN(C(=S)Nc3ccc4nc(N5CCN(C)CC5)cc(C)c4c3)CC2C)c1` (stereo not shown), the “hERG current change (%, negative = inhibition) at 1uM” value is listed as 5.72%. On to `CN(Cc1ccccc1)C(=O)Nc1ccc(Cl)cc1`, for which the “hERG current change (%, negative = inhibition) at 1uM” value turned out to be 11%.

As to `Cc1csc(=O)n1CCC(=O)OCC(=O)Nc1ccc(F)c(F)c1F`, the “hERG current change (%, negative = inhibition) at 1uM” value turned out to be 3.14%.

Consider `CC1=C(C(=O)OCC2CCCO2)C(c2ccc(Cl)cc2)NC(=O)N1` (stereo not shown), for which the “hERG current change (%, negative = inhibition) at 1uM” value was 6%. `CC(=O)c1sc(=S)n(-c2ccccc2)c1C`: the “hERG current change (%, negative = inhibition) at 1uM” value is listed as 13%. Regarding `CCCN1CCN(C2CCCCC2NS(=O)(=O)c2ccc(Cl)cc2)CC1` (stereo not shown), the “hERG current change (%, negative = inhibition) at 1uM” value is given as -37.3%. Under `COC(=O)c1ccc(NC(=O)CNC(=O)C2CCCCC2)c(C)c1` stands 3.53%; under `Cc1cc(C)c(OCCCCN2CCC(C)CC2)c(Br)c1`, -24.1%. Under `Cc1ccc(C)n1-c1ccc(C(=O)/C=C/N(C)C)cc1` stands 13.5%; under `Cc1ccc(Sc2c(C)nn(C(=O)C3CC3)c2C)cc1`, 10.4%; under `NS(=O)(=O)c1ccc(NC(=O)CSc2cn[nH]n2)cc1`, 12.9%. As to `Cc1cc(NC(=O)CSc2sc3c(O)cc(=O)[nH]c3c2C#N)ccc1Br`, the “hERG current change (%, negative = inhibition) at 1uM” value amounted to 6.74%. With `CCC(=O)N1CCc2cc(S(=O)(=O)CCC(=O)Nc3ccc(OC)cc3)ccc21` the figure was 18.7%. With `OCC[C@H]1C[C@H](O)[C@@H](O)[C@]2(Cc3ccccc3CCO2)O1` the figure was 7.08%.

As for `COc1ccc(CCC(=O)N2CCN(S(=O)(=O)c3cccc(Cl)c3)CC2)cc1`, the “hERG current change (%, negative = inhibition) at 1uM” value worked out at 5.2%.

Consider `O=C(CCC(=O)c1ccc(Oc2ccccc2)cc1)Nc1cccc(Cl)c1Cl`, for which the “hERG current change (%, negative = inhibition) at 1uM” value is recorded as 14.2%. With `O=C(N/N=C/c1ccc2nccnc2c1)c1ccncc1`, the “hERG current change (%, negative = inhibition) at 1uM” value stood at 13.4%.

On to `Cc1cc(S(=O)(=O)Nc2ccc(C(=O)N3CCN(C(=O)c4ccco4)CC3)cc2)ccc1F`, for which the “hERG current change (%, negative = inhibition) at 1uM” value is -16.8%. For the molecule `O=c1[nH]c2cccnc2n1Cc1ccccc1`, the “hERG current change (%, negative = inhibition) at 1uM” value turned out to be 5.41%. With `COC(=O)C(NC(C)=O)(Nc1ccccn1)C(F)(F)F` (stereo not shown), the “hERG current change (%, negative = inhibition) at 1uM” value is listed as 6.74%.
